Out of some 150,000 compounds screened, about 540 (0.36%) showed an effect of 50% or more. The list shows a part of the results.

In this test the test system is Plasmodium falciparum. Briefly: Primary screen in NF54 nanoGlo assay, in single point, at 2uM, 72h; a lower Z score goes with more inhibition. It counts as functional, Erythrocyte. Particulars: timepoint 72 hour.
Consider `CC1CCN(Cc2ncc(-c3ccccc3)o2)C2CCCCC12` (centres undefined), for which the % Inhibition (in general, the relative decrease from the control value, in per cent) was -11% and the Z score stood at 1.57.
With `Cc1cc(-c2nnn(CCn3cccn3)n2)ccc1F`, the “% Inhibition” value turned out to be 7% and the Z score is given as -1.44.
Turning to `CCn1ncnc1-c1nccn1CCn1ccnc1`, the “% Inhibition” value was -3% and the Z score came to 0.28.
On the same counts, the results for `CCCCNC(=O)COCC(=O)Nc1ccccc1` are 2% and -0.25.
On the same counts, the results for `CC(C)C[C@H](O)C(=O)N1CCN(CCc2ccccc2)C(=O)C1` are -4% and 0.45.
On the same counts, the results for `O=C(Cc1cccc2ccccc12)N1CC[C@H](N2C(=O)COC2=O)C1` are -5% and 0.57.
For `C[C@@H](C(=O)Nc1ccc(S(=O)(=O)Nc2ccc(Cl)cc2Cl)cc1)N(c1ccccc1)S(C)(=O)=O`, the “% Inhibition” value is -10% and the Z score was 1.12.
Regarding `COCCNC(=O)C1CC(c2ccccc2)CN(C(=O)COc2ccccc2)C1` (centres undefined), the “% Inhibition” value is -1% and the Z score came to 0.17.
On to `O=C(COc1ccc(Cl)cc1)NCC1CCOCC1`, for which the “% Inhibition” value was -3% and the Z score came out at 0.57.
As to `CC(C)c1ncc(Br)c(C(=O)NCC[C@H]2CCOC2)n1`, the “% Inhibition” value was -13% and the Z score was 2.05.
For the compound `CC(C)[C@@H]1CN(C)CCN1C(=O)c1cc2cccnc2[nH]1`, the “% Inhibition” value turned out to be 3% and the Z score is listed as -0.35.
For `CN(CC(=O)N1CC[C@@]2(CCCN(CC3CCC3)C2=O)C1)c1ccccc1`, the “% Inhibition” value is 1% and the Z score is reported as -0.18.
Regarding `COc1ccsc1S(=O)(=O)NC[C@@H](CO)Cc1cccnc1`, the “% Inhibition” value is given as 9% and the Z score is listed as -1.6.
Take `O=C(NCC1CN2CCCN1CC2)c1ccc(OC2CC2(F)F)cc1` (centres undefined): the “% Inhibition” value was -4% and the Z score is 0.75.
On to `CN(Cc1cnc(N(C)C)nc1)C[C@H]1CCCCO1`, for which the “% Inhibition” value is -13% and the Z score worked out at 1.82.
Consider `CN(C)S(=O)(=O)N1C[C@@H](Oc2ccccc2)C[C@H]1C(=O)N1CCOCC1`, for which the “% Inhibition” value turned out to be 6% and the Z score is on record as -0.73.
On to `COc1ccc2ncn(CC3(CO)CCCC3)c(=O)c2c1`, for which the “% Inhibition” value is -4% and the Z score is 0.53.
For the compound `O=C(NCCc1cc(F)cc(F)c1)Nc1cnns1`, the “% Inhibition” value was found to be 2% and the Z score is -0.18.
With `Cc1ncccc1C(=O)N1CCC(CCn2c(C)cnc2-c2ccncc2)CC1`, the “% Inhibition” value was 2% and the Z score is -0.2.
As to `Cn1c(=O)cnn(-c2cc(NS(=O)(=O)Cc3ccccc3)c(Cl)cc2F)c1=O`, the “% Inhibition” value is listed as -6% and the Z score is on record as 0.96.
As to `Cc1ccccc1N1C(=O)c2ccccc2[C@]1(O)c1ccc(F)cc1`, the “% Inhibition” value is listed as -15% and the Z score is 1.51.
In the case of `COc1ccc(NC(=O)c2c(F)c(F)c3c(c2F)N(CCc2ccc(OC)c(OC)c2)CCS3(=O)=O)cc1`, the “% Inhibition” value is listed as -5% and the Z score turned out to be 0.66.
As to `O=S1(=O)CC[C@H](c2nc(-c3ccncc3)nn2C2CCCCC2)C1`, the “% Inhibition” value is reported as -1% and the Z score stood at 0.23.
Consider `Cc1c(C)[n+]([O-])c([C@@H](c2ccc3c(c2)n(C)c(=O)n3C)C2C(=O)OC(C)(C)OC2=O)n1C`, for which the “% Inhibition” value is given as -5% and the Z score amounted to 0.66.
On the same counts, the results for `O=C(c1cn(CC[C@H]2CCCCN2)nn1)N1CC=C(c2ccccc2)CC1` are -2% and 0.19.
On the same counts, the results for `N[C@@H]1CCCC[C@@H]1n1cc(C(=O)N2CCCC2CC2CCCC2)nn1` (some centres undefined) are -12% and 1.94.
Take `CC(C)Oc1cccc(CC(=O)NCc2cccnc2-n2ccnc2)c1`: the “% Inhibition” value is given as -6% and the Z score amounted to 1.06.
In the same order, the values of `O=C1CC[C@H](C(=O)NCc2ccc3c(c2)OCO3)CN1` are -11% and 2.24.
With `COc1cc(CN2CC[C@H](N3CCN(C)CC3)C2)ccc1OCC=C(C)C`, the “% Inhibition” value was -8% and the Z score stood at 1.13.
For the compound `CC(C)(C)c1nccn1Cc1nc2ccccc2s1`, the “% Inhibition” value is -3% and the Z score came to 0.45.
In the case of `C[C@H](Nc1ccc2c(c1)CCC2)C(=O)N1CCNC1=O`, the “% Inhibition” value is -6% and the Z score was determined as 0.78.
In the case of `COc1cc(C)c(-c2nc(CN3CCO[C@@H](CCN)C3)c(C)o2)cc1C`, the “% Inhibition” value was -3% and the Z score is 0.32.
Take `COc1ccc(N2C[C@@H](C(=O)N3CCN(S(=O)(=O)c4ccc(F)c(F)c4)CC3)CC2=O)c(OC)c1`: the “% Inhibition” value is -4% and the Z score was 0.67.
`CN1C[C@@H](O)CNS(=O)(=O)c2ccc(-c3cnn(C)c3)cc2O[C@H]2CN(Cc3cccn3C)C[C@H]21`: the “% Inhibition” value was 16% and the Z score is -2.57.
For `CCc1ccc(C(COC)NS(=O)(=O)CC2(C)CC2(F)F)o1` (centres undefined), the “% Inhibition” value is on record as -1% and the Z score is given as 0.11.
With `CCCCNC(=O)Nc1c(C)c(C)nn1CCO`, the “% Inhibition” value is -11% and the Z score is given as 1.26.
On the same counts, the results for `Cc1cc(CCCOc2c(C)cc(C#N)cc2C)on1` are 18% and -2.34.
Turning to `N#Cc1ccnc(-c2cccc(C(=O)NCCCN3CCCC3=O)c2)c1`, the “% Inhibition” value is reported as -13% and the Z score is 2.11.
In the same order, the values of `O=C(NC1(c2cccs2)CCOCC1)c1ccc2ncsc2c1` are 18% and -2.47.
Turning to `CC1CCN(C(=O)CN2CCN(Cc3ccccc3F)CC2)CC1`, the “% Inhibition” value is on record as -11% and the Z score was found to be 1.
With `CCn1ccc(NC(=O)c2cc(-c3ccc4c(c3)OCO4)nc3onc(C)c23)n1`, the “% Inhibition” value is given as 32% and the Z score is on record as -3.62.
Regarding `O=C(NOC1CCCCO1)C1CC1c1ccc(C(F)(F)F)cc1` (centres undefined), the “% Inhibition” value is listed as -6% and the Z score was found to be 0.82.

The values above are taken from ChEMBL document CHEMBL4888484, “Replenishing the malaria drug discovery pipeline: Screening and hit evaluation of the MMV Hit Generation Library 1 (HGL1) against asexual blood stage Plasmodium falciparum ,using a nano luciferase reporter read-out” (2022).
